The list shows a part of the results. The data describe in vitro nicking of single-stranded DNA by Rep domains at 3 µM enzyme and 37 °C for 1 h; the strands have 90 letters, of which the middle is given. The score is log2 (uncut reads / reads without enzyme); more negative means more cut, near 0 not cut, and no call is made. The scaling is to total reads, so uncut sequences can rise above 0 when many others are cut.
Tests used:
Assay in all cases: uncleaved DNA left, log2 of reads against the no-enzyme library (log2 ratio); higher = less cleavage (more negative = more Rep cleavage of the k-mer); sequences stand for … in CTCGTCCG…ACCGGAGA
[1] = system: T1, Rep nickase domain of Muscovy duck circovirus
T1 sequence (Rep 1-111, printed without the tag): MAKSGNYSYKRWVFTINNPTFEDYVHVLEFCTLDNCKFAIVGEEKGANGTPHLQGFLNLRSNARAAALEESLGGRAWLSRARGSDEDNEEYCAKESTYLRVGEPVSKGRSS
Description: (§1)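 A pool of 90-nt single-stranded DNAs with seven random bases just before the constant AC of the nick site (name = the seven bases) was cut by 3 µM recombinant His6-SUMO-tagged Rep nickase domain (300 nM DNA, 50 mM HEPES pH 8.0, 50 mM NaCl, 1 mM MnCl2, 1 h, 37 °C, three replicates). Uncut DNA was amplified and sequenced.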

[2] = system: T2, Rep nickase domain of banana bunchy top virus
T2 sequence (Rep 1-94, printed without the tag): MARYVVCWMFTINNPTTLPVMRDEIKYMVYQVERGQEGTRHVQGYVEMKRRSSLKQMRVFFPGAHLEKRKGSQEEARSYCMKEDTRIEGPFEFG
Description: as §1

[3] = system: T3, Rep nickase domain of cabbage leaf curl virus
T3 sequence (Rep 1-116, printed without the tag): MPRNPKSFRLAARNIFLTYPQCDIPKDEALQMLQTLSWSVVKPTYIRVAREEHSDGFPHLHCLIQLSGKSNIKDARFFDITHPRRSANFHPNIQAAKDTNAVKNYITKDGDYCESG
Description: as §1

[4] = system: T4, Rep nickase domain of chickpea chlorotic dwarf virus
T4 sequence (Rep 1-124, printed without the tag): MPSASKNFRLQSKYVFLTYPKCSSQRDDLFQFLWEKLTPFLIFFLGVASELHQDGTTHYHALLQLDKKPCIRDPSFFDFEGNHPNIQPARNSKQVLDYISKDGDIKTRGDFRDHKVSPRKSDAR
Description: as §1

[5] = system: T5, Rep nickase domain of faba bean necrotic yellows virus
T5 sequence (Rep 1-98, printed without the tag): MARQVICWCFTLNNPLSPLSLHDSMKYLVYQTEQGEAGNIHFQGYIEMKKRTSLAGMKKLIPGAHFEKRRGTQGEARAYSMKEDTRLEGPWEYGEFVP
Description: as §1

[6] = system: T6, Rep nickase domain of maize striate mosaic virus
T6 sequence (Rep 1-117, printed without the tag): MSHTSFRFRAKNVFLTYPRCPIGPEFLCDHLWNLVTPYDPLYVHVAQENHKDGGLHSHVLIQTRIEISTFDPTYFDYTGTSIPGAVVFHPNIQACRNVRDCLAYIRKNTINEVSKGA
Description: as §1

[7] = system: T7, Rep nickase domain of porcine circovirus 2
T7 sequence (Rep 2-116, printed without the tag): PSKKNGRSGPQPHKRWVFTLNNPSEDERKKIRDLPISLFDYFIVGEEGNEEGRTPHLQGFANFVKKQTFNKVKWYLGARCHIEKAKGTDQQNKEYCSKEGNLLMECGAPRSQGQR
Description: as §1

[8] = system: T8, Rep nickase domain of tomato yellow leaf curl virus
T8 sequence (Rep 1-136, printed without the tag): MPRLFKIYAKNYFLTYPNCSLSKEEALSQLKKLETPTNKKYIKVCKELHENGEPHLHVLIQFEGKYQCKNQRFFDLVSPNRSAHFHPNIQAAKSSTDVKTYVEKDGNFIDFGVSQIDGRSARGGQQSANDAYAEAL
Description: as §1

[9] = system: T9, Rep nickase domain of wheat dwarf virus
T9 sequence (Rep 1-137, printed without the tag): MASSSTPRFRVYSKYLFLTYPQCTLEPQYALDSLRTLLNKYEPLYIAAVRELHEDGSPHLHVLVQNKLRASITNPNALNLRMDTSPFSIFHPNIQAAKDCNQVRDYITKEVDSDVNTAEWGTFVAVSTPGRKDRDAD
Description: as §1

| Sequence | uncleaved DNA left (log2) [1] | uncleaved DNA left (log2) [2] | uncleaved DNA left (log2) [3] | uncleaved DNA left (log2) [4] | uncleaved DNA left (log2) [5] | uncleaved DNA left (log2) [6] | uncleaved DNA left (log2) [7] | uncleaved DNA left (log2) [8] | uncleaved DNA left (log2) [9] |
| --- | --- | --- | --- | --- | --- | --- | --- | --- | --- |
| TGCTTTC | 0.269 | 0.102 | 0.408 | 0.29 | 0.0686 | 0.291 | 0.157 | 0.147 | 0.0636 |
| CCAAACT | 0.0624 | 0.0948 | -0.164 | -2.54 | 0.0358 | -0.514 | -0.016 | 0.166 | 0.0911 |
| CAGATCC | 0.0592 | 0.00326 | 0.0561 | 0.0848 | -0.0903 | 0.0902 | -0.0246 | 0.000723 | 0.0185 |
| GCGGCGG | 0.0245 | -0.0133 | 0.054 | 0.582 | 0.0481 | 1.36 | 0.103 | -0.155 | -0.038 |
| AGTCTAT | -0.14 | -0.282 | -0.0185 | -0.336 | -0.0888 | -0.0634 | -3.36 | -0.152 | -0.15 |
| CCAGTCT | -0.0479 | -0.124 | -0.424 | -2.18 | -0.0756 | -0.866 | -0.0463 | -0.203 | -0.32 |
| AGCCATA | -0.0203 | -0.0727 | -0.043 | -0.102 | -0.0907 | -0.0897 | -0.453 | -0.00685 | 0.0144 |
| TTCCTGA | 0.0646 | 0.0345 | 0.244 | 0.384 | -0.0698 | 0.699 | -0.00313 | 0.00438 | -0.0238 |
| CTCCCGA | 0.0814 | 0.152 | -0.196 | -0.319 | 0.234 | -0.727 | 0.149 | 0.0866 | 0.00269 |
| GTAGGGA | 0.0608 | 0.082 | 0.382 | 0.971 | 0.0862 | 1.07 | 0.118 | 0.109 | 0.206 |
| TATCAAT | 0.203 | 0.127 | 0.55 | 0.282 | 0.125 | 1.09 | -0.522 | 0.243 | 0.355 |
| ATTAACG | 0.0793 | 0.108 | -0.702 | -0.132 | 0.0948 | -1.11 | 0.274 | -0.0335 | 0.0439 |
| ATCCAGG | -0.00767 | -0.0896 | 0.277 | 1.01 | 0.0133 | 0.413 | 0.0895 | 0.0278 | -0.041 |
| CTACATT | -0.167 | -0.0651 | -0.566 | -2.71 | 0.0879 | -0.163 | -0.494 | -0.0518 | -0.36 |
| GAGCGAC | 0.0371 | 0.0128 | 0.111 | 0.751 | -0.0725 | 1.35 | 0.0836 | -0.00538 | 0.0143 |
| CACACAT | 0.0232 | -0.0135 | -0.0749 | -2.31 | -0.0877 | -0.3 | -0.203 | 0.00686 | 0.00859 |

| Sequence | uncleaved DNA left (log2) [1] | uncleaved DNA left (log2) [2] | uncleaved DNA left (log2) [3] | uncleaved DNA left (log2) [4] | uncleaved DNA left (log2) [5] | uncleaved DNA left (log2) [6] | uncleaved DNA left (log2) [7] | uncleaved DNA left (log2) [8] | uncleaved DNA left (log2) [9] |
| --- | --- | --- | --- | --- | --- | --- | --- | --- | --- |
| TACGCAC | -0.0642 | -0.156 | -0.386 | -0.363 | -0.148 | -0.858 | 0.061 | -0.0308 | -0.146 |
| TTTGCCG | -0.0961 | -0.193 | -0.925 | 0.494 | -0.171 | -0.806 | 0.0179 | -0.000988 | -0.177 |
| CGTTTAG | 0.249 | 0.264 | -0.608 | -0.348 | 0.207 | -0.91 | 0.348 | 0.197 | 0.132 |
| GATTTTA | -0.389 | -0.17 | 0.249 | 0.329 | -0.0814 | 1.32 | -0.411 | -0.0457 | 0.000686 |
| ATCTGGT | -0.139 | -0.13 | -0.111 | 0.155 | -0.166 | 0.388 | -1.39 | -0.0695 | -0.104 |
| GATAGGA | 0.0303 | 0.0215 | 0.266 | 0.53 | 0.0179 | 0.225 | 0.123 | 0.0257 | 0.0904 |
| GATTGTG | -0.0541 | -0.0751 | -0.558 | 0.727 | 0.133 | -0.256 | 0.166 | 0.17 | -0.0414 |
| CCCAACC | -0.234 | -0.00923 | -0.207 | -1.42 | 0.00755 | -0.727 | -0.8 | -0.072 | -0.11 |
| ACTGTCC | 0.0779 | 0.085 | 0.0781 | 0.499 | -0.0123 | 0.689 | 0.122 | 0.0173 | 0.0582 |
| CGAAAAA | 0.0687 | 0.0335 | 0.0169 | -0.0627 | -0.0223 | -0.52 | 0.228 | 0.118 | 0.135 |
| CAAAACG | 0.0365 | -0.021 | -0.835 | -0.26 | 0.151 | -1.02 | 0.163 | 0.0269 | 0.017 |
| AGATTGT | -0.118 | -0.0909 | -0.304 | -0.28 | 0.0142 | -0.879 | -0.505 | 0.00283 | -0.0367 |
| ACGGGCA | -0.052 | 0.00787 | -0.144 | -0.253 | -0.147 | -0.428 | -0.264 | -0.0494 | -0.146 |
| GATTTCT | -2.9 | -2.67 | 0.311 | -1.42 | 0.0945 | 0.894 | -3.09 | 0.176 | 0.146 |
| TCCCCTC | -0.0215 | -0.00615 | 0.158 | -0.224 | -0.016 | -0.284 | -0.268 | -0.0151 | 0.0738 |
| ACCGACG | 0.0655 | 0.0261 | -0.66 | -0.343 | 0.0282 | -0.778 | 0.208 | -0.028 | -0.0505 |

Source: the supplement of paper PMC7826260
